# Measured values from PubChem BioAssay AID463173 (ICCB-Longwood Screening Facility, Harvard Medical School, 2010).
# The whole screen tested about 52,000 compounds, of which about 4,300 (8.3%) were called active. Rule as the data show it: active = survival mostly below about 52% (no sharp cut-off); inactive = mostly above about 56%. The list shows a part of the results.
# Test system: DeltatarO mutant
# Assay: S. aureus survival, RN4220 and DeltatarO strains – OD600, teichoic acid synthesis inhibitors, primary screen (AID 463173)
# Conditions: S. aureus RN4220 wild type/DeltatarO growth, OD600, 18 h, hits give low values, screened at 18.75 µg/mL (by protocol)
row,SMILES,survival
1,CCC(=O)N1CCc2cc(S(=O)(=O)NCCC(=O)NC(C)c3ccccc3)ccc21 (stereo not drawn),inactive: 85%
2,O=C(C1CCN(S(=O)(=O)c2cccc3nonc23)CC1)N1CCN(c2ccc(F)cc2)CC1,inactive: 91%
3,O=C(c1ccccc1)c1ccc(C(=O)O)c(C(=O)O)c1,inactive: 113%
4,CCOc1ccc(CNC(=O)CCS(=O)(=O)c2cc3c4c(c2)CCN4C(=O)CC3)cc1,inactive: 76%
5,CCOC(=O)c1c(C)oc2ncnc(Nc3ccc(CC)cc3)c12,inactive: 85%
6,CC1CCN(C(=O)CN2CCSc3ccc(S(=O)(=O)N(C)C)cc32)CC1,inactive: 96%
7,O=C(CN1C(=O)S/C(=C\c2ccco2)C1=O)CN1C(=O)S/C(=C\c2ccco2)C1=O,inactive: 78%
8,O=C(CC1(O)C(=O)N(CCc2ccccc2)c2ccc(Br)cc21)c1ccccc1 (stereo not drawn),active: 25%
9,O=C(OCn1nnc2ccccc2c1=O)C1CCCCC1,inactive: 113%
10,COc1ccc(N(Cc2nnc3n2CCCCC3)C(=O)Nc2ccc(Cl)cc2)cc1Cl,inactive: 85%
11,CCCn1c(SCC(=O)N2CCCC2)nnc1C(C)C,inactive: 101%
12,CCC1CCCCN1C(=O)CSc1n[nH]c(-c2ccccc2)n1 (stereo not drawn),inactive: 85%
13,Cc1cccc(OCC(=O)Nc2ccc(OCc3cc(=O)n4cc(C)ccc4n3)cc2)c1,inactive: 83%
14,Cc1c(Cl)cccc1NC(=O)C(C)n1nc(C)c2c(C)n(-c3ccccc3)nc2c1=O (stereo not drawn),inactive: 91%
15,CNC(=O)c1ccc(-c2nc(CN3CCc4ccccc43)c(C)o2)cc1,inactive: 80%
16,CC(=O)Nc1ccc(Nc2nc3ccc(Cl)cc3n3cnnc23)cc1,inactive: 99%
17,CCc1ccc2oc(C(=O)Nc3nc(-c4ccc(F)cc4)ns3)c(C)c2c1,inactive: 68%
18,CCOC(=O)c1cccc(NC(=O)CC2C(=O)N(c3ccccc3)C(=O)N2Cc2ccco2)c1 (stereo not drawn),inactive: 63%
19,Cc1nc2nc(C(F)(F)F)[nH]c2cc1Br,active: 4%
20,COc1ccc(-c2cc(C(F)(F)F)n3nc(C(=O)OC(C)C)cc3n2)cc1,inactive: 89%
21,Cc1cc2c(n1-c1ccc(C(=O)NCCc3ccc(Cl)cc3)cc1)CCC(C)C2 (stereo not drawn),inactive: 71%
22,Cc1c(C2=CCN(S(=O)(=O)c3ccc(Cl)cc3)CC2)c2ccccc2n1CC(=O)N1CCCC1,inactive: 57%

row,SMILES,survival
1,Cc1ccccc1CN1CCC(CNC(=O)c2cc3ccc4cccnc4c3[nH]2)CC1,inactive: 87%
2,COc1ccccc1NC(=O)c1sc2nc(C)c(C(=O)Nc3ccc(Cl)cc3)c(-c3ccc(Br)cc3)c2c1N,inactive: 94%
3,CC(C)(C)C(=O)NC1CC(=O)N(c2ccc3c(c2)OCCO3)C1 (stereo not drawn),inactive: 125%
4,COc1ccccc1N1CCN(C(=O)c2cc3c(s2)-c2ccccc2OC3)CC1,inactive: 88%
5,CCc1cccc(NC(=O)c2cc(S(=O)(=O)N3CCCCCC3)cn2C)c1,inactive: 66%
6,CN(C)CCOC(=O)c1ccco1,inactive: 94%
7,O=C1CC(c2nnc(Cc3ccc(F)cc3)o2)CN1c1ccccc1 (stereo not drawn),inactive: 134%
8,Cc1cccc(NC(=O)CSc2cn(CC(=O)N3CCC(C)CC3)c3ccccc23)c1C,inactive: 80%
9,Fc1ccccc1-n1ncc2c1ncn1nc(COc3ccc(Cl)cc3)nc21,inactive: 83%
10,CC(=O)c1cccc(NC(=O)Cn2c(-c3cncs3)nc3ccccc32)c1,inactive: 67%
11,Cc1cccc(N2CCN(S(=O)(=O)c3nnc(NC(=O)c4ccc(Cl)cc4)s3)CC2)c1,inactive: 54%
12,COc1ccc(OC)c(NC(=O)c2ccc3nc(C(C)C)oc3c2)c1,inactive: 67%
13,Cc1nc2nc(CNC(=O)c3cccc(F)c3)nn2c(C)c1CCC(=O)Nc1ccc(F)cc1,inactive: 80%
14,Cc1ccc(S(=O)(=O)Cc2csc(N)n2)cc1,inactive: 90%
15,COc1cc2c(cc1OC)C(COc1ccc(F)cc1)N(C(=O)C(C)C)CC2 (stereo not drawn),inactive: 58%
16,O=c1n(Cc2ccccc2)nc2n1-c1ccccc1OC2,inactive: 121%
17,CC(C)c1cnc2c(c1SCc1ccc([N+](=O)[O-])cc1)c(=O)n(C)c(=O)n2C,inactive: 73%
18,CCc1ccccc1N1CC(c2nc3ccccc3n2CCCCOc2ccccc2OC)CC1=O (stereo not drawn),inactive: 80%
19,Cc1noc(Cn2c(=O)c3cc4c(cc3n(CC(=O)Nc3ccc(C(C)C)cc3)c2=O)OCO4)n1,inactive: 67%
20,CC(C)NC(=O)Cc1csc2nc(-c3ccccc3)cn12,inactive: 99%
21,CNS(=O)(=O)c1ccc(NC(=O)c2nc3nc(C)cc(C(F)F)n3n2)cc1,inactive: 132%
22,COc1cccc(-c2cc(C(F)(F)F)n3nc(-c4ccc(C)cc4)cc3n2)c1,inactive: 142%

row,SMILES,survival
1,CCN(c1ccccc1)S(=O)(=O)c1ccc(NC(=O)c2cc(=O)c3c(C)cc(C)cc3o2)cc1,inactive: 80%
2,CNC(=O)C1CCC(Cn2c(=O)c3sccc3n(CC(=O)N3CCCCC3C)c2=O)CC1 (stereo not drawn),inactive: 89%
3,Cc1cccc(-c2noc(-c3cccnc3NCc3ccccc3Cl)n2)c1,inactive: 61%
4,O=S(=O)(NCC(c1ccco1)S(=O)(=O)c1ccccc1)c1cc(F)ccc1F (stereo not drawn),inactive: 94%
5,O=C(CCS(=O)(=O)c1ccc(Br)s1)Nc1c(F)cccc1F,inactive: 128%
6,COc1ccc(S(=O)(=O)N(Cc2nc(-c3ccccc3)no2)C2CCCCC2)cc1,inactive: 64%
7,COc1cccc(N2C(=O)CC(N3CCC(C(N)=O)(N4CCCCC4)CC3)C2=O)c1 (stereo not drawn),inactive: 84%
8,Fc1ccc(Nc2nc(SCc3ccc(Cl)cc3)nc3ccccc23)cc1,inactive: 92%
9,Cc1ccccc1C(=O)NCC(c1ccc(N(C)C)cc1)N1CCCC1 (stereo not drawn),inactive: 102%
10,Cc1ccc(C)c(NC(=O)CSc2nc(-c3ccccc3)c(C#N)c(=O)[nH]2)c1,inactive: 103%
11,Cc1ccc(CNc2nc3ccc(Cl)cc3n3cnnc23)cc1,inactive: 90%
12,COC(=O)c1ccccc1NC(=O)C1=CC(c2ccc3c(c2)OCO3)=NS(=O)(=O)N1C,inactive: 66%
13,COc1ccc(S(=O)(=O)c2c(Nc3c(C)cccc3C)sc(C(=O)c3ccc(F)cc3)c2N)cc1,inactive: 98%
14,CCOc1ccc(CCNC(=O)c2cccc(Nc3nc4ccccc4nc3-n3nc(C)cc3C)c2)cc1OCC,inactive: 98%
15,O=C(CC1N=C2c3ccccc3N=C(SCc3ccc(F)cc3)N2C1=O)NC1CCCCC1 (stereo not drawn),inactive: 124%
16,CCOc1ccc(N(C(=O)c2ccc(Cl)cc2)S(=O)(=O)c2ccc3c(c2)n(C)c(=O)n3C)cc1,active: 37%
17,Cc1cccc(NC(=O)Cn2c(=O)n(Cc3ccccc3)c(=O)c3sc4ccccc4c32)c1,inactive: 141%
18,Cc1ccc(C)c(NC(=O)CN(C)S(=O)(=O)c2cccc3cccnc23)c1,inactive: 85%
19,Cc1ccc(Cl)cc1N1CCN(CCCNC(=O)Cn2ncc3c([nH]c4ccccc43)c2=O)CC1,inactive: 102%
20,Cc1ccc(C(=O)Nc2ccccc2C(=O)OCc2cc(=O)n3nc(C(C)C)sc3n2)cc1,inactive: 78%
21,COc1ccc(CC(=O)NCCS(=O)(=O)N2CCN(c3ccccc3F)CC2)cc1OC,inactive: 95%
22,CCOc1ccccc1NC(=O)C1CCC(CNS(=O)(=O)c2ccc3c(c2)CCCC(=O)N3)CC1 (stereo not drawn),inactive: 78%

row,SMILES,survival
1,O=C(c1ccc(Cl)cc1)N1CCCC1,inactive: 76%
2,CCN1CCc2c(sc(NC(=O)c3ccc(S(=O)(=O)N(CCOC)CCOC)cc3)c2C(N)=O)C1,inactive: 69%
3,CN(C)CCNC(=O)c1ccc(-n2c(-c3ccccc3)cc3c2CCCCC3)cc1,inactive: 53%
4,CCn1c(CSc2ncccn2)nnc1SCC(=O)N1CCCCC1,inactive: 63%
5,CC(NC(=O)CN1C(=O)COc2ccc(S(=O)(=O)N3CCCCCC3)cc21)c1ccccc1 (stereo not drawn),inactive: 68%
6,Cc1ccc(Sc2c(C(=O)NCc3cccc(F)c3)[nH]c3ccccc23)cc1,inactive: 72%
7,CC(C)Oc1ccc(CN2CCc3nc(Nc4ccc5c(c4)OCCO5)ncc3C2)cc1,inactive: 77%
8,Cc1cccc(NC(=O)CSc2ncc(-c3ccc(Br)cc3)[nH]2)c1,inactive: 110%
9,O=C(CSc1ccc(-c2cccs2)nn1)Nc1ccccc1,inactive: 76%
10,Cc1ccc(CN(Cc2ccco2)C(=O)c2ccc(Cl)cc2Cl)cc1,inactive: 53%
11,Cc1cccc(-c2nc(CCNC(=O)COc3ccccc3)cs2)c1,inactive: 94%
12,COc1ccc(CC(=O)N2N=C(c3ccncc3)CC2(O)C(F)(F)F)cc1 (stereo not drawn),inactive: 104%
13,COc1ccc(-c2cc(-c3ccccc3)nc(SCC(=O)Nc3ccccc3C)c2C#N)cc1,active: 56%
14,COc1cccc(CNc2nc3ccccc3c3nc(-c4cccc(C)c4)nn23)c1,active: 31%
15,CC(=O)c1cccc(NC(=O)Nc2c(C)n(C)n(-c3ccccc3)c2=O)c1,inactive: 128%
16,Cc1cccc(N2CCN(C(=O)CN3C(=O)COc4ccc(S(=O)(=O)N5CCC(C)CC5)cc43)CC2)c1C,inactive: 75%
17,COc1ccc(C(=O)Nc2cccc(-c3cn4ccsc4n3)c2)c(OC)c1,inactive: 70%
18,O=S(=O)(Nc1cccc(C(F)(F)F)c1)c1ccc(NS(=O)(=O)c2ccc3c(c2)OCCO3)cc1,active: 6%
19,Cc1ccc(NC(=O)CSc2nc3ccccc3n2CC(=O)N2CCC(C)CC2)cc1C,active: 17%
20,CCc1nn(CC(=O)N2CCC(C)CC2)c(=O)c2cc3occc3n12,inactive: 117%
21,CCCN(c1ccc(C(C)C)cc1)S(=O)(=O)c1ccc2c(c1)n(C)c(=O)c(=O)n2C,inactive: 84%
22,Cc1csc2nc(COC(=O)c3cccc(NC(=O)c4cccc(Cl)c4)c3)cc(=O)n12,active: 17%
